Experimental data as given in PMC5966428, “Comparative inhibitory profile and distribution of bacterial PARPs, using Clostridioides difficile CD160 PARP as a model” (Scientific Reports, 2018).

Molecular target: HaPARP (Herpetosiphon aurantiacus, UniProt A9B244)
Assay: Thermal stability assay (Sypro Orange melting curves)
Assay type: binding
Settings: read-out: Tm increase (ΔTm) of HaPARP

In the case of NC(=O)c1cccc(N)c1 [3-aminobenzamide], the ΔTm at 1000 µM is reported as 7 °C.
